The supplement of paper PMC12217912
Some of the results follow. Sequences were assembled here from the parent chain. Values near 0.05 are background.

B1: TEV protease; numbered along this chain (parent)
chain: MGESLFKGPRDYNPISSSICHLTNESDGHTTSLYGIGFGPFIITNKHLFRRNNGTLVVQSLHGVFKVKDTTTLQQHLVDGRDMIIIRMPKDFPPFPQKLKFREPQREERICLVTTNFQTKSMSSMVSDTSCTFPSGDGIFWKHWIQTKDGQCGSPLVSTRDGFIVGIHSASNFTNTNNYFTSVPKNFMELLTNQEAQQWVSGWRLNADSVLWGGHKVFMVKPEEPFQPVKEATQL

Variants of: B1
Assay: raw area under fraction-flipped curve 0-4 h after induction (AUC4h, not background-subtracted), DNA-recorder readout of cleavage of the substrate (dimensionless); higher = more cleavage of the substrate by the protease variant
Details: temperature: 34 °C; time window: 0-4 h after rhamnose induction
Method: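 In vivo DNA recorder in E. coli TOP10(DE3) ΔrhaA at 34 °C. Each TEVp single-site mutant (parent TEVp 0) is paired with a single-site variant of the 7-mer TEVs (canonical ENLYFQ|S). The substrate sits between flexible linkers in a Bxb1-sfGFP-TEVs-SsrA fusion, so cleavage stabilises Bxb1 and speeds flipping of a recombination array, read by NGS. The value is the raw area under the fraction-flipped curve over 0-4 h after rhamnose induction (AUC4h), with ≥20 reads per time point. It is not background-subtracted; inactive controls average about 0.047.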
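Note: Bxb1 expression induced with 0.2% (w/v) L-rhamnose at OD600 near 0.5, cultures sampled hourly, flipped fraction per protease–substrate barcode pair counted by paired-end Illumina sequencing.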

Variant	area with substrate ENLAFQS	area with substrate ENLDFQS	area with substrate ENLEFQS	area with substrate ENLFFQS	area with substrate ENLHFQS	area with substrate ENLIFQS	area with substrate ENLKFQS	area with substrate ENLLFQS	area with substrate ENLNFQS	area with substrate ENLPFQS	area with substrate ENLQFQS	area with substrate ENLRFQS	area with substrate ENLSFQS	area with substrate ENLVFQS	area with substrate ENLWFQS	area with substrate ENLCFQS	area with substrate ENLGFQS	area with substrate ENLMFQS	area with substrate ENLTFQS
N53F	0.0625	0.0617	0.0647	0.0699	0.0543	0.0685	0.0729	0.0702	0.0563	0.0508	0.0438	0.0644	0.0569	0.0802	0.0838				
I86S	0.0492	0.0479		0.0694	0.0517	0.0495	0.0565	0.0466	0.0557	0.0507	0.0475		0.0425	0.0553		0.0472			
I86L	0.069	0.0693	0.0762		0.07		0.0794		0.0704				0.057	0.0865					
I86T	0.064			0.0738	0.0628	0.0655	0.0678	0.059	0.0485	0.0491	0.0626		0.0526		0.0557		0.0764		
Y34V	0.0662	0.0583	0.0475	0.0779					0.0671	0.0655		0.066	0.0764				0.046		
T55N	0.0549	0.0737	0.0643	0.0798	0.0672		0.0709	0.0556	0.0633	0.0466			0.0494		0.0519	0.0855	0.0655		
T55D	0.0625	0.0538	0.0514	0.0652	0.0719	0.0632	0.0601	0.0675	0.0635	0.0701			0.0338	0.0729			0.0477		
T55L	0.0433	0.0136	0.0431	0.0957	0.0625				0.0581			0.0677	0.0526	0.0739	0.0725				
G37H	0.0613	0.0609		0.0723		0.0643	0.0793		0.0542		0.0553	0.0654	0.0655	0.076	0.0358			0.0687	0.0591
F95I	0.0513	0.0667		0.0691	0.055	0.061	0.0665					0.0904	0.0905					0.0592	
F65D	0.0571	0.0382		0.078	0.0623		0.0572	0.0617		0.0596				0.0856		0.0654			
P89M	0.0521	0.0615		0.0653	0.0517	0.0703	0.0673	0.0703	0.0353	0.0454			0.0499		0.0539				
P89Q	0.0632	0.0348	0.0628	0.0949	0.0777		0.0653	0.0679	0.0648	0.056		0.0435			0.073		0.0612		
R81Y	0.053	0.0668	0.0664	0.0671	0.0621	0.0816	0.0642	0.0662	0.0481	0.0487	0.0758	0.116	0.0632		0.0584		0.0674		
R81W	0.0519	0.0668	0.077	0.0645	0.0681		0.0542		0.0753	0.0628	0.0513			0.063					
